{
  "source": "the supplement of paper PMC9938546",
  "note": "Counter-ions that a name gives are not always drawn. The list shows a part of the results. Many values rest on one well or one pass, so single values are uncertain.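 Note: viability estimated indirectly by image-based GFP quantification with live-cell imaging of the constitutively GFP-expressing human colorectal cancer line, no immune cells added.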",
  "data": [
    {"system": "HCT116-GFP", "experiment": "HCT116-GFP viability (GFP intensity) relative to untreated control, monoculture; higher = less cancer cell killing", "settings": "culture: HCT116-GFP monoculture; 10 µM; 72 h", "units": {"HCT116-GFP viability": "%"}, "values": [
      {"smiles": "COc1cc(C(=O)OCCCN2CCCN(CCCOC(=O)c3cc(OC)c(OC)c(OC)c3)CC2)cc(OC)c1OC", "note": "[Dilazep dihydrochloride]", "HCT116-GFP viability": 80.6},
      {"smiles": "O=C1c2c(O)cccc2Cc2cccc(O)c21", "note": "[Anthralin]", "HCT116-GFP viability": 99.2},
      {"smiles": "Cc1ccc(N(CC2=NCCN2)c2cccc(O)c2)cc1", "note": "[Phentolamine hydrochloride]", "HCT116-GFP viability": 86.2},
      {"smiles": "CCc1ccc(CCOc2ccc(CC3SC(=O)NC3=O)cc2)nc1", "note": "(stereo unspecified) [Pioglitazone]", "HCT116-GFP viability": 88.5},
      {"smiles": "CO[C@H]1/C=C/O[C@@]2(C)Oc3c(C)c(O)c4c(O)c(c(/C=N/N5CCN(C)CC5)c(O)c4c3C2=O)NC(=O)/C(C)=C\\C=C\\[C@H](C)[C@H](O)[C@@H](C)[C@@H](O)[C@@H](C)[C@H](OC(C)=O)[C@@H]1C", "note": "[Rifampicin]", "HCT116-GFP viability": 89.1},
      {"smiles": "Cc1c(Cl)cccc1Nc1ccccc1C(=O)O", "note": "[Tolfenamic acid]", "HCT116-GFP viability": 94},
      {"smiles": "CCCSc1ccc2[nH]c(NC(=O)OC)nc2c1", "note": "[Albendazole]", "HCT116-GFP viability": 14.4},
      {"smiles": "CC[C@H]1OC(=O)[C@H](C)[C@@H](O[C@H]2C[C@@](C)(OC)[C@@H](O)[C@H](C)O2)[C@H](C)[C@@H](O[C@@H]2O[C@H](C)C[C@H](N(C)C)[C@H]2O)[C@](C)(O)C[C@@H](C)C(=O)[C@H](C)[C@@H](O)[C@]1(C)O", "note": "[Erythromycin]", "HCT116-GFP viability": 95.4},
      {"smiles": "c1ccc(CC2=NCCN2)cc1", "note": "[Tolazoline hydrochloride]", "HCT116-GFP viability": 96.2},
      {"smiles": "CC(C)(Oc1ccc(CCNC(=O)c2ccc(Cl)cc2)cc1)C(=O)O", "note": "[Bezafibrate]", "HCT116-GFP viability": 99},
      {"smiles": "OCCN1CCN(CCCN2c3ccccc3Sc3ccc(C(F)(F)F)cc32)CC1", "note": "[Fluphenazine dihydrochloride]", "HCT116-GFP viability": 48},
      {"smiles": "O=C(O)CCc1nc(-c2ccccc2)c(-c2ccccc2)o1", "note": "[Oxaprozin]", "HCT116-GFP viability": 78},
      {"smiles": "Clc1ccc2c(c1)C(N1CCNCC1)=Nc1ccccc1O2", "note": "[Amoxapine]", "HCT116-GFP viability": 101},
      {"smiles": "O=C1c2ccccc2C(=O)C1c1ccccc1", "note": "[Phenindione]", "HCT116-GFP viability": 96},
      {"smiles": "COc1ccc(CC(C)NCC(O)c2ccc(O)c(NC=O)c2)cc1", "note": "(stereo unspecified) [Formoterol fumarate]", "HCT116-GFP viability": 90.1},
      {"smiles": "CCOC(=O)N1CCC(=C2c3ccc(Cl)cc3CCc3cccnc32)CC1", "note": "[Loratadine]", "HCT116-GFP viability": 70.2},
      {"smiles": "COCCCC/C(=N\\OCCN)c1ccc(C(F)(F)F)cc1", "note": "[Fluvoxamine maleate]", "HCT116-GFP viability": 97.1},
      {"smiles": "COC(=O)[C@H](c1ccccc1Cl)N1CCc2sccc2C1", "note": "[Clopidogrel]", "HCT116-GFP viability": 94.2},
      {"smiles": "C[C@]12CCC(=O)C=C1CC[C@@H]1[C@@H]2C(=O)C[C@@]2(C)[C@H]1CC[C@]2(O)C(=O)CO", "note": "[Cortisone]", "HCT116-GFP viability": 104},
      {"smiles": "CC(=O)[C@@]12O[C@](C)(c3ccccc3)O[C@@H]1C[C@H]1[C@@H]3CCC4=CC(=O)CC[C@]4(C)[C@H]3CC[C@@]12C", "note": "[Algestone acetophenide]", "HCT116-GFP viability": 53.8},
      {"smiles": "C[C@H](N[C@@H](CCc1ccccc1)C(=O)O)C(=O)N1CCC[C@H]1C(=O)O", "note": "[Enalaprilat dihydrate]", "HCT116-GFP viability": 104},
      {"smiles": "CN(C)[C@@H]1C(O)=C(C(N)=O)C(=O)[C@@]2(O)C(O)=C3C(=O)c4c(O)cccc4[C@@](C)(O)[C@H]3C[C@@H]12", "note": "[Tetracycline hydrochloride]", "HCT116-GFP viability": 94.7},
      {"smiles": "CS(=O)(=O)c1ccc([C@@H](O)[C@@H](CF)NC(=O)C(Cl)Cl)cc1", "note": "[Florfenicol]", "HCT116-GFP viability": 76.3},
      {"smiles": "CCN(CC)CCCC(C)Nc1ccnc2cc(Cl)ccc12", "note": "(stereo unspecified) [Chloroquine diphosphate]", "HCT116-GFP viability": 115},
      {"smiles": "C=C(CC)C(=O)c1ccc(OCC(=O)O)c(Cl)c1Cl", "note": "[Ethacrynic acid]", "HCT116-GFP viability": 102},
      {"smiles": "Nc1ccc(S(=O)(=O)NC(=O)c2ccccc2)cc1", "note": "[Sulfabenzamide]", "HCT116-GFP viability": 94.4},
      {"smiles": "CCCCCN(C)CCC(O)(P(=O)(O)O)P(=O)(O)O", "note": "[Ibandronate sodium]", "HCT116-GFP viability": 102},
      {"smiles": "O=C1NCCN1c1ncc([N+](=O)[O-])s1", "note": "[Niridazole]", "HCT116-GFP viability": 93.4},
      {"smiles": "C1N2CN3CN1CN(C2)C3", "note": "[Methenamine]", "HCT116-GFP viability": 94.9},
      {"smiles": "CNc1ncnc2c1ncn2[C@@H]1O[C@H](CO)[C@@H](O)[C@H]1O", "note": "[N6-methyladenosine]", "HCT116-GFP viability": 115},
      {"smiles": "OCC(O)CN1CCN(c2ccccc2)CC1", "note": "(racemic) [Dropropizine (R,S)]", "HCT116-GFP viability": 111},
      {"smiles": "CC(C)(C)C(=O)OCOC(=O)[C@@H]1N2C(=O)[C@@H](/N=C/N3CCCCCC3)[C@H]2SC1(C)C", "note": "[Pivmecillinam hydrochloride]", "HCT116-GFP viability": 82.5},
      {"smiles": "c1ccc2c(c1)CCCC2C1=NCCN1", "note": "(stereo unspecified) [Tetrahydrozoline hydrochloride]", "HCT116-GFP viability": 101},
      {"smiles": "C[C@@H](O)[C@H]1C(=O)N2C(C(=O)O)=C(SCCNC=N)C[C@H]12", "note": "[Imipenem]", "HCT116-GFP viability": 83.8},
      {"smiles": "CC(=O)OCC(=O)NCCCOc1cccc(CN2CCCCC2)c1", "note": "[Roxatidine Acetate hydrochloride]", "HCT116-GFP viability": 106},
      {"smiles": "CCn1cc(C(=O)O)c(=O)c2cc(F)c(N3CCNCC3)nc21", "note": "[Enoxacin]", "HCT116-GFP viability": 108},
      {"smiles": "CCCc1ncc(C[n+]2ccccc2C)c(N)n1", "note": "[Amprolium hydrochloride]", "HCT116-GFP viability": 110},
      {"smiles": "Oc1ccc(C2CNCCc3c2cc(O)c(O)c3Cl)cc1", "note": "(stereo unspecified) [Fenoldopam]", "HCT116-GFP viability": 109},
      {"smiles": "CC(C(=O)O)c1cccc(Oc2ccccc2)c1", "note": "(stereo unspecified) [Fenoprofen calcium salt dihydrate]", "HCT116-GFP viability": 110},
      {"smiles": "CCN(CC)CCCC(C)Nc1c2ccc(Cl)cc2nc2ccc(OC)cc12", "note": "(stereo unspecified) [Quinacrine dihydrochloride hydrate]", "HCT116-GFP viability": 60},
      {"smiles": "CCCCCCCCCCCCCCCC[N+](C)(C)CCN(Cc1ccc(OC)cc1)c1ncccn1", "note": "[Thonzonium bromide]", "HCT116-GFP viability": 0.157},
      {"smiles": "C#C[C@]1(O)CC[C@H]2[C@@H]3CCc4cc(OC)ccc4[C@H]3CC[C@@]21C", "note": "[Ethynylestradiol 3-methyl ether]", "HCT116-GFP viability": 93.6},
      {"smiles": "CC(C)NCC(O)c1ccc(NS(C)(=O)=O)cc1", "note": "(stereo unspecified) [Sotalol hydrochloride]", "HCT116-GFP viability": 89},
      {"smiles": "CN(CCOc1ccc(NS(C)(=O)=O)cc1)CCc1ccc(NS(C)(=O)=O)cc1", "note": "[Dofetilide]", "HCT116-GFP viability": 110},
      {"smiles": "CC(=O)N1CCN(c2ccc(OCC3COC(Cn4ccnc4)(c4ccc(Cl)cc4Cl)O3)cc2)CC1", "note": "(stereo unspecified) [Ketoconazole]", "HCT116-GFP viability": 70.3},
      {"smiles": "CCOC(=O)Nc1ccc2c(c1)N(C(=O)CCN1CCOCC1)c1ccccc1S2", "note": "[Moricizine hydrochloride]", "HCT116-GFP viability": 96.8}
    ]}
  ]
}
